In PubChem BioAssay AID2675 (National Center for Advancing Translational Sciences (NCATS), 2010):
About 100 (0.036%) of roughly 280,000 compounds were called active. Inconclusive means that the source gave no clear call. Such entries were picked first, then a sample of the others. Calls follow the shape of the dose curve; as a rule, active = well fitted inhibition curve with a large enough effect in the signal ratio, with a control signal flat (not every such curve was filed as active); inconclusive = small, poorly fitted or top-dose-only effect, or effect the other way, or a change in a side signal; inactive = no such curve, though single readings can be large or run the other way; the % refers to the signal ratio. Potencies of inconclusive entries are doubtful fits and often do not repeat. A note “side channel” means that the fit belongs to a control or component signal, not to the main read-out.
% is scaled to controls: 0 for no effect and ±100 for the full control effect; potency is read from the fitted curve at half-maximal effect; tags tell the direction and shape of the fitted curve or compound fluorescence and quenching.

Each compound was assayed against Muscleblind-like protein 1 (Homo sapiens) (UniProt Q9NR56) (assay: qHTS Assay for Inhibitors of MBNL1-poly(CUG) RNA binding). Conditions: TR-FRET MBNL1-His/biotin-(CUG)12 binding, 665/545 ratio; activity change, negative = inhibition: at 57.5 µM (top of the series).
UniProt Q9NR56, sequence (Q9NR56 whole entry, looked up): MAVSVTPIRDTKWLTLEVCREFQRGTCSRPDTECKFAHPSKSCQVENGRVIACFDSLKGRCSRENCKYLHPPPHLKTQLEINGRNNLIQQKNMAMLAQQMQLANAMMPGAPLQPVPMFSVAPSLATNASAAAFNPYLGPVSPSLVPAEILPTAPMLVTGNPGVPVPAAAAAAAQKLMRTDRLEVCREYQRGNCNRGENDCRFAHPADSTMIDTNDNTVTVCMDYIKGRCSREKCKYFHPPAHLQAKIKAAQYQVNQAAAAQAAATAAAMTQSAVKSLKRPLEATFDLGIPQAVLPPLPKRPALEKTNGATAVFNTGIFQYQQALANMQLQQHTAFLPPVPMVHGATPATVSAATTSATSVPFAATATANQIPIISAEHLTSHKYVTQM
Summary of the method: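 MBNL1-His + Biotin-(CUG)12, cpd titration 92 nM–58 uM; Tb anti-His Ab 0.055 ng/ul, SA-XL665 5 nM (final); 60 min RT; ratiometric 665/545 nm, Ex 340 nm; normalized to buffer and full-complex controls.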
In the case of O=C(CN1CCN(C(=O)N2CCOCC2)CC1)Nc1ccc(Br)cc1, the “activity change, negative = inhibition” value is reported as inactive: 5.18%.
For Cc1cc(C(=O)CN2C(=O)c3ccccc3S2(=O)=O)c(C)n1-c1ccccc1, the “activity change, negative = inhibition” value was inactive: 2.37%.
With O=C(Nc1ccccc1)C1=C[C@@H](c2ccc(Br)cc2)C[C@@H](OCCCCO)O1 the Potency was inconclusive: 28.2 µM [quencher, side channel, single point].
Cc1ccc(S(=O)(=O)NC(=O)COc2ccc([N+](=O)[O-])cc2)cc1 was tested, and the Potency was inconclusive: 39.8 µM [quencher, side channel, single point].
In the case of CCOC(=O)C1CCN(C(=O)CSc2n[nH]c(=O)[nH]c2=O)CC1, the Potency is reported as inconclusive: 0.631 µM [quencher, side channel, full curve].
With O=C1C2C3C=CC(C3)C2C(=O)N1CNc1ccc(O)cc1 (configuration not stated) the Potency was inconclusive: 15.8 µM [quencher, side channel, partial curve].
For CC(C)C1Cc2c(C#N)c(N)n(C)c(=S)c2CO1 (configuration not stated), the Potency was inconclusive: 28.2 µM [quencher, side channel, partial curve].
With Cc1ccc(Sc2nc([N+](=O)[O-])nn2C)cc1 the Potency was inconclusive: 1 µM [quencher, side channel, single point].
Cc1ccc(NC(=O)c2ccc(OC(=O)C(C)Oc3ccc(Cl)cc3C)cc2)cc1 (configuration not stated) was tested, and the Potency was inconclusive: 3.16 µM [fluorescent, side channel, partial curve].
Cc1nc2c(C(=O)N3CCOCC3)cnn2c(C)c1Cc1ccc(Cl)cc1 was tested, and the “activity change, negative = inhibition” value was inactive: -4.74%.
For CCc1ccc(NC(=O)c2sc3nc(C)nc(N4CCN(c5ccccn5)CC4)c3c2C)cc1, the Potency was inconclusive: 39.8 µM [fluorescent, side channel, single point].
With COc1ccc(-n2c(-c3ccccc3)nc(=S)c3c2CCCC3)cc1 the Potency was inconclusive: 25.1 µM [fluorescent, side channel, partial curve].
For CCOC(=O)C1=C(C)N[C@@]2(O)c3ccccc3C(=O)[C@@]12O, the Potency was inconclusive: 15.8 µM [quencher, side channel, partial curve].
O=C(Nc1nc2ccccc2[nH]1)c1ccccc1OC(F)F was tested, and the “activity change, negative = inhibition” value was inactive: -4.74%.
For OCCCN=c1cc(-c2ccccc2)oc2ccc(Cl)cc12, the Potency was inconclusive: 14.1 µM [quencher, side channel, partial curve].
With CCOC(=O)C1CCN(C(=S)Nc2cc(C)ccc2C)CC1 the “activity change, negative = inhibition” value was inactive: -2.64%.
O=c1c2ccccc2nc2n1CCCN2 was tested, and the “activity change, negative = inhibition” value was inactive: 2.33%.
With CC(=O)Nc1ccc(Nc2c3ccccc3nc3ccccc23)cc1 the Potency was inconclusive: 14.1 µM [quencher, partial curve].
For CCOC(=O)c1cn(CC)c2cc(N3CCN(C)CC3)c(F)cc2c1=O, the “activity change, negative = inhibition” value was inactive: -3.16%.
In the case of NC(=O)c1cc(S(=O)(=O)N2CCN(c3ccc([N+](=O)[O-])cc3)CC2)cs1, the Potency is reported as inconclusive: 12.6 µM [quencher, side channel, partial curve].
With Cc1ccccc1NS(=O)(=O)c1ccc(OCC(=O)NCc2cccnc2)cc1 the Potency was inconclusive: 0.126 µM [fluorescent, side channel, full curve].
With CC(C)(C)NC(=O)C(c1ccc(F)cc1)N(Cc1ccco1)C(=O)Cn1nnc(-c2cccs2)n1 (configuration not stated) the Potency was inconclusive: 50.1 µM [inhibitor, single point].
With O=[N+]([O-])c1cccc(S(=O)(=O)N2CCCC2)c1 the Potency was inconclusive: 25.1 µM [quencher, side channel, single point].
With O=C(c1cc([N+](=O)[O-])cc([N+](=O)[O-])c1)N(Cc1nnc(-c2ccccc2Cl)o1)C1CC1 the Potency was inconclusive: 11.2 µM [quencher, side channel, partial curve].
In the case of CCOC(=O)c1nc(C)c(C(C)=O)s1, the Potency is reported as inconclusive: 15.8 µM [quencher, side channel, partial curve].
For O=C1CN(C(=O)c2cc([N+](=O)[O-])ccc2Cl)C(c2ccccc2)c2cc(F)ccc2N1 (configuration not stated), the activity change, negative = inhibition was inconclusive: 29.5% [phenotype inactive].
For O=C(/C=C/c1cccc([N+](=O)[O-])c1)NCCN1C(=O)S/C(=C\c2cccnc2)C1=O, the Potency was inconclusive: 28.2 µM [quencher, side channel, partial curve].
COc1ccc2nc(SCC(=O)NCC3CCCO3)c(C#N)cc2c1 (configuration not stated) was tested, and the Potency was inconclusive: 39.8 µM [fluorescent, single point].
For CCOC(=O)c1c(-c2ccccc2)csc1NC(=O)CCN1C(=O)c2ccccc2C1=O, the Potency was inconclusive: 0.1 µM [fluorescent, side channel, full curve].
For Cc1csc(NC(=O)c2ccccc2[N+](=O)[O-])n1, the Potency was inconclusive: 35.5 µM [quencher, side channel, single point].
Cc1ccc(N(CC(=O)Nc2ccc3c(c2)OCCO3)S(C)(=O)=O)cc1 was tested, and the Potency was inconclusive: 6.31 µM [inhibitor, single point].
In the case of O=C(CCN1C(=O)c2cccc3cccc(c23)C1=O)NCC1CCCO1 (configuration not stated), the Potency is reported as inconclusive: 11.2 µM [quencher, partial curve].
With O=[N+]([O-])c1cccc(-c2nnc(CNC3CC3)o2)c1 the Potency was inconclusive: 17.8 µM [quencher, side channel, partial curve].
For COC(=O)c1c(-c2cccc3ccccc23)csc1NC(=O)Cc1ccc(OC)c(OC)c1, the “activity change, negative = inhibition” value was inactive: 2.46%.
COc1ccc(CCCC(=O)N/N=C/c2cccc(OC)c2O)cc1C was tested, and the Potency was inconclusive: 3.16 µM [fluorescent, side channel, partial curve].
With COC(=O)c1ccc(NC(=S)NCCc2cccc(C)c2)cc1 the “activity change, negative = inhibition” value was inactive: -9.94%.
CC(C)c1ccc(NC(=O)c2ccc3snnc3c2)cc1 was tested, and the Potency was inconclusive: 15.8 µM [quencher, partial curve].
N#CC1=C(N)S[C@@H](C(=O)c2ccc(F)cc2)[C@@H]1c1cccs1 was tested, and the Potency was inconclusive: 79.4 µM [inhibitor, single point].
For O=C(N/N=C/c1cccc2ccccc12)c1cccc(F)c1, the Potency was inconclusive: 15.8 µM [quencher, side channel, partial curve].
In the case of O=C(Nc1nc(-c2ccc3c(c2)OCO3)cs1)C1CC1, the Potency is reported as inconclusive: 2.51 µM [quencher, side channel, partial curve].
With O=C(NC1CCCC1)C(c1cccs1)N(C(=O)c1ccco1)c1ccc2c(c1)OCO2 (configuration not stated) the Potency was inconclusive: 39.8 µM [inhibitor, single point].
In the case of NC(=O)COC(=O)c1ccc2c(c1)S(=O)(=O)c1ccccc1C2=O, the Potency is reported as inconclusive: 8.91 µM [quencher, side channel, partial curve].
Cc1ccc(S(=O)(=O)CCC(=O)NCCN2C(=O)S/C(=C/c3ccc(F)cc3)C2=O)cc1 was tested, and the Potency was inconclusive: 25.1 µM [quencher, side channel, single point].
For Oc1ccc2ccccc2c1CNc1ccc(Br)cc1, the “activity change, negative = inhibition” value was inactive: -0.74%.
With CCN(CC)C(=O)c1ccc(-c2cccs2)s1 the Potency was inconclusive: 28.2 µM [quencher, side channel, partial curve].
For O=C1CCCC(O)=C1N=Nc1cccc(S(=O)(=O)N2CCOCC2)c1, the Potency was inconclusive: 7.94 µM [quencher, side channel, partial curve].
For CN(CCO)C(=O)c1ccc(-c2nn(C)c(=O)c3ccccc23)cc1, the “activity change, negative = inhibition” value was inactive: -3.54%.
With O=C(NNc1ccccc1)C(=O)NNS(=O)(=O)c1ccc([N+](=O)[O-])cc1 the Potency was inconclusive: 39.8 µM [quencher, single point].
For COc1ccc(Oc2c(Cl)cnn(-c3ccc(C)cc3)c2=O)cc1, the Potency was inconclusive: 31.6 µM [quencher, single point].
For Cc1cccc(N=C/C(C(=O)C(F)(F)F)=C(\O)c2ccco2)c1, the Potency was inconclusive: 0.1 µM [fluorescent, side channel, full curve, poor fit].
With COCCNC(=O)c1onc(CSc2ccc(F)c(F)c2)c1C(=O)O the Potency was inconclusive: 126 µM [inhibitor, partial curve, poor fit].
For S=C(NC1CCCCCC1)NC1CCCC1, the “activity change, negative = inhibition” value was inactive: 6.6%.
COc1cc(/C=N/S(=O)(=O)CCc2ccccc2)cc(OC)c1O was tested, and the Potency was inconclusive: 100 µM [inhibitor, single point].
With S=C(Nc1ccc2nccnc2c1)N1CCCC1 the Potency was inconclusive: 7.08 µM [quencher, side channel, full curve].
For O=C(CNC1CCCCC1)NN=C(c1ccccc1)c1ccccc1, the “activity change, negative = inhibition” value was inactive: -1.67%.
In the case of CCCNC(=O)/C(C#N)=C1\N=C(NC(=O)c2cccs2)c2ccccc21, the Potency is reported as inconclusive: 3.55 µM [quencher, side channel, full curve].
Nc1c(Cl)c(Cl)nc(C(=O)N/N=C/c2ccco2)c1Cl was tested, and the Potency was inconclusive: 7.08 µM [quencher, side channel, full curve].
For O=C(OCc1nc2ccccc2s1)c1ccc([N+](=O)[O-])o1, the Potency was inconclusive: 3.55 µM [quencher, side channel, full curve].
For COC(=O)C1=C(C)N(Cc2ccccc2)C(=NCC2CC2)N[C@H]1c1ccc(Br)cc1, the “activity change, negative = inhibition” value was inactive: -8.37%.
In the case of O=C(N/N=C/c1ccc(Br)s1)c1cccnc1, the Potency is reported as inconclusive: 14.1 µM [quencher, side channel, partial curve].
For COc1ccc(/C=C(\C#N)C(=O)N2CCOCC2)cc1Br, the “activity change, negative = inhibition” value was inactive: -7.04%.
O=C(/C=C/Nc1ccc(F)c(Cl)c1)c1ccco1 was tested, and the Potency was inconclusive: 7.08 µM [quencher, side channel, partial curve].
